No constants are given. Whether binding was seen depends on the method and setting. In cells and extracts the contact can be indirect. Some binding calls cover weakened binding; strength is not graded here.
Experiments:
[1] = target: JAK3 (human (endogenous in HEK293T)) (UniProt P52333); assay: co-IP; JAK1, JAK2 or JAK3 immunoprecipitated with specific antibodies (5 ug, protein G-Agarose, 4 C, washed four times with RIPA buffer) from lysates of HEK293T cells overexpressing WT or mutant PTPN6; blot for PTPN6
[2] = target: JAK2 (human (endogenous in HEK293T)) (UniProt O60674); assay: as above
[3] = target: JAK1 (human (endogenous in HEK293T)) (UniProt P23458); assay: as above
PTPN6 A550V (human) = PTPN6 A550V (human) (UniProt P29350); assay: co-IP; PTPN6 immunoprecipitated with PTPN6 antibody (5 ug, protein G-Agarose, 4 C, washed four times with RIPA buffer) from lysates of HEK293T cells overexpressing WT or mutant PTPN6; blot for STAT3
PTPN6 N225K (human) = PTPN6 N225K (human) (UniProt P29350); assay: as above

Chains of the proteins cited; added tags and fusions are not shown. Lines headed by an entry give the natural chain unless they say otherwise; changes in a name come on top.
UniProt P52333: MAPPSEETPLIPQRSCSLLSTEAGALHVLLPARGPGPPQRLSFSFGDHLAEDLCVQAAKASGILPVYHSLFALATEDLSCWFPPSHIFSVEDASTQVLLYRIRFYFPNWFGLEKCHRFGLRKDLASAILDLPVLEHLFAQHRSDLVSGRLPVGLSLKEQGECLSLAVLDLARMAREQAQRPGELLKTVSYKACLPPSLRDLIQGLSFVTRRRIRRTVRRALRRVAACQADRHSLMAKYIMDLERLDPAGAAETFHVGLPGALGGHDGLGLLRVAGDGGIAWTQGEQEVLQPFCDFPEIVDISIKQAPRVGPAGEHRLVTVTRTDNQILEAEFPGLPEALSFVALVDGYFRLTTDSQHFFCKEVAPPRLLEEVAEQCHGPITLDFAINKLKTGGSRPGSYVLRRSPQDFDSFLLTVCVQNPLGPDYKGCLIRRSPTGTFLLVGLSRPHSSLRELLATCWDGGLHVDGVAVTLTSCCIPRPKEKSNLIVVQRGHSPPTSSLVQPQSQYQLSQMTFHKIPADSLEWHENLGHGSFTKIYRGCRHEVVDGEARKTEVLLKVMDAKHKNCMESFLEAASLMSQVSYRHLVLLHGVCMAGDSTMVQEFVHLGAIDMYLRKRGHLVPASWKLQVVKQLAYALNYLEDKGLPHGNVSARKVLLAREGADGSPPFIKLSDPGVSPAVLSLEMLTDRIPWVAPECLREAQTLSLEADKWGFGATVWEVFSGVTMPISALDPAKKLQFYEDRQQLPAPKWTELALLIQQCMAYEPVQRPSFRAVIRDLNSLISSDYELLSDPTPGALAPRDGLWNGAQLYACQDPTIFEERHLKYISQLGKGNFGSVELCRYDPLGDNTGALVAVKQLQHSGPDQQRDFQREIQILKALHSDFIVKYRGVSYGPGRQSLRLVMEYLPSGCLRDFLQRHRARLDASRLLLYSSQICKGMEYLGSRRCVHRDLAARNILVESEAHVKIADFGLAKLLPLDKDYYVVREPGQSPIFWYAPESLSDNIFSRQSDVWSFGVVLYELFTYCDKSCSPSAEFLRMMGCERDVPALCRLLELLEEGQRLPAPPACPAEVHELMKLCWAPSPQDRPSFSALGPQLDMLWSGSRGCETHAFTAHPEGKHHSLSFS
UniProt O60674: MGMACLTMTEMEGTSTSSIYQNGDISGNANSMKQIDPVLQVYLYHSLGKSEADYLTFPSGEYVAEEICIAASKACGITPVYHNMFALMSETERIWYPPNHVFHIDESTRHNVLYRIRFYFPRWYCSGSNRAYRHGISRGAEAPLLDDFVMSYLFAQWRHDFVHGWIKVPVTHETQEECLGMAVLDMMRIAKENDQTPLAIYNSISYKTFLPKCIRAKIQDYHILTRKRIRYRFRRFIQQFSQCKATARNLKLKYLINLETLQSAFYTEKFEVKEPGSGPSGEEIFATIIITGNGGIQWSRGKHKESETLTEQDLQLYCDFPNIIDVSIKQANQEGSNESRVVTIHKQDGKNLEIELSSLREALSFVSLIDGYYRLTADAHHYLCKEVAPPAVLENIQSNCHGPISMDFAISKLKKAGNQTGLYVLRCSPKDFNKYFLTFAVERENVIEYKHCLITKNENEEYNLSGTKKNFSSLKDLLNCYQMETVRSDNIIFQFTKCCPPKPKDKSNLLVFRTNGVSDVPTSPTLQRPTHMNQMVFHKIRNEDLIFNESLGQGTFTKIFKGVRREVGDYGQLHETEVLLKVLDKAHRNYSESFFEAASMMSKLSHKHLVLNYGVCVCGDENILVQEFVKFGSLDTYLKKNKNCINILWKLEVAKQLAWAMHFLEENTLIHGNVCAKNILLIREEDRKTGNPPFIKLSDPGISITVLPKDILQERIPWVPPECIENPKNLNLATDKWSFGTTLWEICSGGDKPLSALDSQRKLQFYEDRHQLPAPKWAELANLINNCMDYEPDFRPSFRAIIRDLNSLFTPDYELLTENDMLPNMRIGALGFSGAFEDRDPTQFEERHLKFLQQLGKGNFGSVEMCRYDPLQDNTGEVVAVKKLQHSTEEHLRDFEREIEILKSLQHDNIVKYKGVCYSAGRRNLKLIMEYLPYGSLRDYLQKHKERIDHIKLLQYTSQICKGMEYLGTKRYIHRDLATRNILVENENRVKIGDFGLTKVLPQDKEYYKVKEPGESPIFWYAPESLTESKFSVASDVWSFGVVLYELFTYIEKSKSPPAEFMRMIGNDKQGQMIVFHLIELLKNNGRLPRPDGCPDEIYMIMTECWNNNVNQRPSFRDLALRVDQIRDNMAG
UniProt P23458: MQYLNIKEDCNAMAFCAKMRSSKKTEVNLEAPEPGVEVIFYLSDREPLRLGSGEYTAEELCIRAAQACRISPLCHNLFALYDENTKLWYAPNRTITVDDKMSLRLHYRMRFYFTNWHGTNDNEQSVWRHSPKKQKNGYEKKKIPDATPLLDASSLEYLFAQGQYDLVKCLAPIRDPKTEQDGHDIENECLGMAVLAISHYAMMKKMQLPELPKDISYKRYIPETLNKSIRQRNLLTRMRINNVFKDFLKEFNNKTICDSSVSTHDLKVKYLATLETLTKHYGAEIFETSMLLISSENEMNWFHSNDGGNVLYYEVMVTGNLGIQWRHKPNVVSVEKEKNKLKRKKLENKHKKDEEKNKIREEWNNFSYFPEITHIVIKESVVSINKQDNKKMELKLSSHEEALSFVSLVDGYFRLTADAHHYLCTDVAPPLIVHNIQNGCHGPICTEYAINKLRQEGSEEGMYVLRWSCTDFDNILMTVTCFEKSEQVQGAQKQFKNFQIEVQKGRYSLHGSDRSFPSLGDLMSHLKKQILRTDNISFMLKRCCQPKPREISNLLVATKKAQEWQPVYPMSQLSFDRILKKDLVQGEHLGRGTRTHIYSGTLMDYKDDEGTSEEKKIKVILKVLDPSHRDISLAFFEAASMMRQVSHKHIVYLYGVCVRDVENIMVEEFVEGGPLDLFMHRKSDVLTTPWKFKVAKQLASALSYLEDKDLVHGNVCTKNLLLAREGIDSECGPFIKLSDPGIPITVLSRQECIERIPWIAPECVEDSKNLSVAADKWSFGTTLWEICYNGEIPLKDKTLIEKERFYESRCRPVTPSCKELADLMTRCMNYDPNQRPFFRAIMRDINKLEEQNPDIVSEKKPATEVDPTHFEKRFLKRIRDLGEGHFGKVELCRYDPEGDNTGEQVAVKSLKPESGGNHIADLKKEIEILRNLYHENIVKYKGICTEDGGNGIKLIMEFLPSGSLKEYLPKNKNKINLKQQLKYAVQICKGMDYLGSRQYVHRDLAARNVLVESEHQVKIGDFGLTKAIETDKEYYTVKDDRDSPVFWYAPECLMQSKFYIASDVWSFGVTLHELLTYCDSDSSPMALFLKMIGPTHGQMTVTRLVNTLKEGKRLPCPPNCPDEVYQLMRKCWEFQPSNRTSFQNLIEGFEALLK
UniProt P29350: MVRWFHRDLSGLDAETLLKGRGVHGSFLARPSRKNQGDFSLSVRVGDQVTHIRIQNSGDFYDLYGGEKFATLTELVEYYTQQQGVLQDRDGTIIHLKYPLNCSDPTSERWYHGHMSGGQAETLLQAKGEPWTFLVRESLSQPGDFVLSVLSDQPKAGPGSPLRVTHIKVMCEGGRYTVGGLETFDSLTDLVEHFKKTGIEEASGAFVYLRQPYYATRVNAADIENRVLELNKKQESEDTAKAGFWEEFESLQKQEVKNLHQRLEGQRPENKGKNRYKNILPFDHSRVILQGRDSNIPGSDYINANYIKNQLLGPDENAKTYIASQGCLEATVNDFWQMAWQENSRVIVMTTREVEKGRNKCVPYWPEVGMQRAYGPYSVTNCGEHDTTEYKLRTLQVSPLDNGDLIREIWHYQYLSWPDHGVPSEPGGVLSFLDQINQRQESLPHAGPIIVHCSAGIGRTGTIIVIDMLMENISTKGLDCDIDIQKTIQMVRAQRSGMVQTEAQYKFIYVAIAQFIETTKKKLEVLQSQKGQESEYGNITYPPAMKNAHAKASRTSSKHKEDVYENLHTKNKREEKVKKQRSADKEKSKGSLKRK
UniProt P40763: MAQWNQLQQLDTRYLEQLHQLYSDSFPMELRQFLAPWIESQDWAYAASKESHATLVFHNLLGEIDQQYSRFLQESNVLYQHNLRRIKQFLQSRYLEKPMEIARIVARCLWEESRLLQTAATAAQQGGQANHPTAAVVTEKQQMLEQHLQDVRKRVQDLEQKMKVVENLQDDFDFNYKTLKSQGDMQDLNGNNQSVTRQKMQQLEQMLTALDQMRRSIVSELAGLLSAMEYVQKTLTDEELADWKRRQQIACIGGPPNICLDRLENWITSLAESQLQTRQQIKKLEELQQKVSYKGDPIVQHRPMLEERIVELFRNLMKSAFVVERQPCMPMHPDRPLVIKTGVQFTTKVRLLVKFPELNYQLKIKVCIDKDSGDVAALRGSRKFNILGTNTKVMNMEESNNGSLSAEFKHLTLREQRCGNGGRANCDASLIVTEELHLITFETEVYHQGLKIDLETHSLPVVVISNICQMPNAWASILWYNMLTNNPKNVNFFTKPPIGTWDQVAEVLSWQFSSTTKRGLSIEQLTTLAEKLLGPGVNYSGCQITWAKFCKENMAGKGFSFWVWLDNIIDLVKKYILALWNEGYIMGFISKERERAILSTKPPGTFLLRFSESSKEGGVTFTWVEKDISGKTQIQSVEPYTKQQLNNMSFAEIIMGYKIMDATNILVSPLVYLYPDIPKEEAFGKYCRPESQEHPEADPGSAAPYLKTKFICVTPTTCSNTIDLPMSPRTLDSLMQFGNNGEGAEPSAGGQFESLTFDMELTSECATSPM

**Q.** Which binding [1] does the source give for “PTPN6 A550V (from UniProt P29350-1 1-595) (enzyme)” here?
**A.** binds

**Q.** What about the binding [2] of the same substance?
**A.** binds weakly

**Q.** And the binding [3]?
**A.** binds weakly

**Q.** What does the source list for STAT3 (from UniProt P40763 1-770)?
**A.** binding (PTPN6 A550V (human)): no binding; binding (PTPN6 N225K (human)): no binding

**Q.** What does the source list for “PTPN6 wild type (from UniProt P29350-1 1-595) (enzyme)”?
**A.** binding [1]: binds; binding [2]: no binding; binding [3]: no binding

**Q.** How did the binding [1] turn out when “PTPN6 N225K (from UniProt P29350-1 1-595) (enzyme)” was run?
**A.** binds

**Q.** And the binding [2]?
**A.** binds weakly

**Q.** What about the binding [3] of the same substance?
**A.** binds weakly
